The values below come from paper PMC3158102.

By UniProt entry, the sequences of proteins in these tests, tags left out. Where a name states a change or a piece, a line headed by the entry shows the natural chain unless it says otherwise. Residues count along the entry.
UniProt P46940: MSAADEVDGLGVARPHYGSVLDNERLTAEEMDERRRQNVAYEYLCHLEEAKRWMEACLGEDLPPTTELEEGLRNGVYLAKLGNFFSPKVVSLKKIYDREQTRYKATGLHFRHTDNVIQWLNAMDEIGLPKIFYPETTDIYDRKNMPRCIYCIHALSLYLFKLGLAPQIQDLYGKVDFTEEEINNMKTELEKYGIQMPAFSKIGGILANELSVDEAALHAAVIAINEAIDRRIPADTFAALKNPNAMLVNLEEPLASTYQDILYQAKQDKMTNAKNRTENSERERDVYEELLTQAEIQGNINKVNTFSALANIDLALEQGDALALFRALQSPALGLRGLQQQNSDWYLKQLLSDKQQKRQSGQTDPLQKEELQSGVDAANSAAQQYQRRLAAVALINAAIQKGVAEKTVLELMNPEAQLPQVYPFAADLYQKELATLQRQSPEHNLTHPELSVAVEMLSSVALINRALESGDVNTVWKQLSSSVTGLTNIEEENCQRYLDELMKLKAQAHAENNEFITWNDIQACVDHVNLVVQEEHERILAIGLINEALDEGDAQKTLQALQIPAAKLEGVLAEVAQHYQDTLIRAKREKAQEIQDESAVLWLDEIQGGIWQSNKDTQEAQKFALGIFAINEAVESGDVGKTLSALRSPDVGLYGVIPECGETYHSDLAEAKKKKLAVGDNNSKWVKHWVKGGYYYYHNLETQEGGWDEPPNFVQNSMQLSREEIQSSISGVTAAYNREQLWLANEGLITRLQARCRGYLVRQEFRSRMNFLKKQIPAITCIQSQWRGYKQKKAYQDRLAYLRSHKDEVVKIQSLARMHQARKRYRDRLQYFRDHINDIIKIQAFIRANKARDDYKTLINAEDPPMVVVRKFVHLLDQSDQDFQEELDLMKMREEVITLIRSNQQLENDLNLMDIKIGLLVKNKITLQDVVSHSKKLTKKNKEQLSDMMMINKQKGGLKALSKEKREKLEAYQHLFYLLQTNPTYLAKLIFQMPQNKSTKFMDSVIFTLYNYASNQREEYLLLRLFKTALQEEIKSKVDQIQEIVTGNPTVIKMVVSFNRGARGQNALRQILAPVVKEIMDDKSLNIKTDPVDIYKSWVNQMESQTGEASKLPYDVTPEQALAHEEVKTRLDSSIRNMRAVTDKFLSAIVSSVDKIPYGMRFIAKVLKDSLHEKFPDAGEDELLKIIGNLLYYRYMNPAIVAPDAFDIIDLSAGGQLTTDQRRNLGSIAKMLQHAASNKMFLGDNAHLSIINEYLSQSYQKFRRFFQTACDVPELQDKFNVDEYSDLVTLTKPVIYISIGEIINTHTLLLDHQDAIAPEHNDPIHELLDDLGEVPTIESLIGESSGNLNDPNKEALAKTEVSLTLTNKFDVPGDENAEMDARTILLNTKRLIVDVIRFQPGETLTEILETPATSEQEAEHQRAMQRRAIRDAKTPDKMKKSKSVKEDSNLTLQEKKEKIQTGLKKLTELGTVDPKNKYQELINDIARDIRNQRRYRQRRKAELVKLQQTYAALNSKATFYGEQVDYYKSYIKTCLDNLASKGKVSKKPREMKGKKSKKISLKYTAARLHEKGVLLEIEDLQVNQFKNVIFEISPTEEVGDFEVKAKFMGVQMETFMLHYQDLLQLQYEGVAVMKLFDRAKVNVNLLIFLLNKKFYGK
GST-IQGAP1-amino-terminus (NT) (residues 1-863): residues 1-863 of P46940
GST-IQGAP1 1-265: residues 1-265 of P46940
GST-IQGAP1 1-160: residues 1-160 of P46940
GST fusion protein containing IQGAP1 residues 1-44: residues 1-44 of P46940
GST fusion protein containing IQGAP1 residues 160-431: residues 160-431 of P46940
UniProt P25025: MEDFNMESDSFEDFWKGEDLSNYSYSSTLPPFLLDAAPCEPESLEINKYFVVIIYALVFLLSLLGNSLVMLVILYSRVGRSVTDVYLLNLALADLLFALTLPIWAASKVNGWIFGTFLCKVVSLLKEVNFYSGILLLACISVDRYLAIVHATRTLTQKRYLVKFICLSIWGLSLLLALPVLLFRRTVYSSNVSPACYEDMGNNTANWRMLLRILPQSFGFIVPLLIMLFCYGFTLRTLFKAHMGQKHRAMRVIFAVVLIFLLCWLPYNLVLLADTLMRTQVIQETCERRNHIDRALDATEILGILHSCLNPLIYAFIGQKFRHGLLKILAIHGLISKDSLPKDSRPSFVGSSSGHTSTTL

These are yes or no findings as the source states them, for the method shown. In cells and extracts the contact can be indirect. Some binding calls cover weakened binding; strength is not graded here.

Test [1] has as its target IQ motif containing GTPase activating protein 1 (IQGAP1), endogenous in differentiated HL-60 cells (human (endogenous in HL-60)) (UniProt P46940). Description: co-IP; reverse co-IP: differentiated HL-60 cells cross-linked with 2 mM DSP after 100 ng/ml CXCL8, lysed in 1x RIPA; anti-IQGAP1 polyclonal rabbit antibody and protein A/G agarose; western blot for CXCR2.
For the next test, the target named is GST-IQGAP1 1-265 (UniProt P46940). In words: pull-down; GST or GST-IQGAP1 fragments on glutathione beads incubated with lysates of differentiated HL-60 cells stably expressing CXCR2; western blot with anti-CXCR2 antibody; only the target purified. Background: A western blot detects proteins with antibodies after separation by electrophoresis.
In a further test the target is GST-IQGAP1 1-160 (UniProt P46940). The description is as above.
Test [2] deals with GST fusion protein containing IQGAP1 residues 160-431 (UniProt P46940). The test is described as above.
For test [3], the target named is GST-IQGAP1-amino-terminus (NT) (residues 1-863) (UniProt P46940). The test is described as above.
Test [4] deals with GST fusion protein containing IQGAP1 residues 1-44 (UniProt P46940). The description is as above.
Test [5] has as its target CXCR2 stably expressed in HEK293 cells (UniProt P25025). Description: co-IP; HEK293-CXCR2 cells transiently transfected with vector or IQGAP1 1-160 construct, CXCL8 (100 ng/ml) or carrier buffer 5 min at 37 C; anti-CXCR2 antibody conjugated to sepharose beads; immunoblot for IQGAP1.
Test [6] deals with CXCR2 stably over-expressed in differentiated HL-60 cells (UniProt P25025). Description: co-IP; anti-CXCR2 antibody-coupled Sepharose; lysates of differentiated HL-60 cells expressing CXCR2, untreated or 100 ng/ml CXCL8 for 1 min; western blot for IQGAP1.
For test [7] the target is unchanged. Description: condition: only after 5 min of stimulation of the cells with 100 ng/ml CXCL8; co-IP; anti-CXCR2 antibody-coupled Sepharose; lysates of differentiated HL-60 cells expressing CXCR2 stimulated with 100 ng/ml CXCL8 for 5 min; western blot for IQGAP1.
The target is the same in test [8]. Description: co-IP; differentiated HL-60 cells lysed in 0.1% triton X-100 in PBS; anti-CXCR2 antibody; in the presence of IQGAP1 fragment 1-160 (20 or 40 mg), control fragment IQGAP1 161-431 or buffer only; immunoblot for IQGAP1.

Regarding “CXCR2 stably over-expressed in differentiated HL-60 cells (from UniProt P25025 1-360) (receptor)”, the binding entry in test [1] was “binds”; in the test with GST-IQGAP1 1-265 it was “binds”; with GST-IQGAP1 1-160, “binds”; in [2] it was “no binding”; in [3], “binds”; in test [4], “no binding”.
With “IQGAP1, endogenous in HEK293-CXCR2 cells (from UniProt P46940 1-1657)”, in test [5], the binding result is “binds”.
Take “IQ motif containing GTPase activating protein 1 (IQGAP1), endogenous in differentiated HL-60 cells (from UniProt P46940 1-1657)”: the binding result in [6] is given as “binds”; in test [7], “no binding”; in test [8] it was “binds”.
